Experimental data as given in patent US10299477B2 (priority 2015, dated 2019).

Legend:
Format in all cases: in vivo
Puccinia recondita = test: Test Example E: Brown rust on wheat; details: in vivo
Source text: [Test Example E] Brown Rust on Wheat

Alternaia brassicicola = test: Test Example C: Alternaria sooty spot on cabbage; details: in vivo
Source text: [Test Example C] Alternaria Sooty Spot on Cabbage
Seeds of a test plant (cabbage variety: Shikidori) were planted followed by cultivating until the cotyledons extended.

Plasmopara viticola = test: Test Example G: Downy mildew on vine; details: 250 ppm, sprayed 2.5 ml/pot before inoculation; evaluated 7-10 days after inoculation
Source text: [Test Example G] Downy Mildew on Vine
Seeds of a test plant (grape variety: Neomuscat) were planted followed by cultivating until three to four first leaves appeared. […] After the sprayed dilutions were dried, a zoosporangia suspension (1-2×10^4 zoosporangia/ml) of Plasmopara viticola was inoculated to the plants by spraying.

Botrytis cinerea = test: Test Example B: Gray mold on tomato; details: in vivo
Source text: [Test Example B] Gray Mold on Tomato
Seeds of a test plant (tomato variety: Oogata Fukuju) were planted followed by cultivating until three to five first leaves (true leaves) appeared.

[1] = test system: Blumeria graminis f sp. hordei; test: Test Example D: Powdery mildew on barley; details: in vivo
Source text: [Test Example D] Powdery Mildew on Barley
After the sprayed dilutions were dried, conidia of Blumeria graminis f sp. hordei were inoculated to the plants by shaking off.

SMILES	Test E (control value class, brown rust on wheat) (Puccinia recondita)	Test C (control value class, Alternaria sooty spot on cabbage) (Alternaia brassicicola)	Test G (control value class, downy mildew on vine) (Plasmopara viticola)	Test B (control value class, gray mold on tomato) (Botrytis cinerea)	Test D (control value class, powdery mildew on barley) [1]
CCn1c(-c2c(F)cc(F)cc2F)c(-c2cccc(F)c2F)cc(Br)c1=O [Compound 567]	H (H shows more than 50% of control values)	H (H shows more than 50% of control values)	H (H shows more than 50% of control values)	H (H shows more than 50% of control values)	H (H shows more than 50% of control values)
CCn1c(-c2c(F)cc(F)cc2F)c(-c2ccccc2F)cc(F)c1=O [Compound 568]	H (H shows more than 50% of control values)	H (H shows more than 50% of control values)	H (H shows more than 50% of control values)	H (H shows more than 50% of control values)	H (H shows more than 50% of control values)
CCn1c(-c2c(F)cc(OC)cc2F)c(-c2ccccc2F)cc(C)c1=O [Compound 569]	H (H shows more than 50% of control values)	H (H shows more than 50% of control values)	H (H shows more than 50% of control values)	H (H shows more than 50% of control values)	H (H shows more than 50% of control values)
COc1cc(F)c(-c2c(-c3ccccc3F)cc(Cl)c(=O)n2C)c(F)c1 [Compound 570]	H (H shows more than 50% of control values)	H (H shows more than 50% of control values)	H (H shows more than 50% of control values)	H (H shows more than 50% of control values)	H (H shows more than 50% of control values)
Cc1cc(-c2ccccc2F)c(-c2c(F)cc(F)cc2F)n(C)c1=O [Compound 571]	H (H shows more than 50% of control values)	H (H shows more than 50% of control values)	H (H shows more than 50% of control values)	H (H shows more than 50% of control values)	H (H shows more than 50% of control values)
COc1cc(F)c(-c2c(-c3ccccc3F)cc(Br)c(=O)n2C)c(F)c1 [Compound 572]	H (H shows more than 50% of control values)	H (H shows more than 50% of control values)	H (H shows more than 50% of control values)	H (H shows more than 50% of control values)	H (H shows more than 50% of control values)
CCN1C(=O)CCC(c2ccc(F)cc2Cl)=C1c1c(F)cc(F)cc1F [Compound 573]	H (H shows more than 50% of control values)	H (H shows more than 50% of control values)	L (L shows 50% or less of control values)	H (H shows more than 50% of control values)	H (H shows more than 50% of control values)
CN1C(=O)CCC(c2ccc(F)cc2Cl)=C1c1c(F)cc(F)cc1F [Compound 574]	H (H shows more than 50% of control values)	H (H shows more than 50% of control values)	H (H shows more than 50% of control values)	H (H shows more than 50% of control values)	H (H shows more than 50% of control values)
CCn1c(-c2c(F)cc(F)cc2F)c(-c2ccc(F)cc2Cl)ccc1=O [Compound 575]	H (H shows more than 50% of control values)	H (H shows more than 50% of control values)	H (H shows more than 50% of control values)	H (H shows more than 50% of control values)	H (H shows more than 50% of control values)
Cn1c(-c2c(F)cc(F)cc2F)c(-c2ccc(F)cc2Cl)ccc1=O [Compound 576]	H (H shows more than 50% of control values)	H (H shows more than 50% of control values)	H (H shows more than 50% of control values)	H (H shows more than 50% of control values)	H (H shows more than 50% of control values)
CCn1c(-c2c(F)cc(F)cc2F)c(-c2ccc(F)cc2Cl)cc(Cl)c1=O [Compound 577]	H (H shows more than 50% of control values)	H (H shows more than 50% of control values)	L (L shows 50% or less of control values)	H (H shows more than 50% of control values)	H (H shows more than 50% of control values)
CCn1c(-c2c(F)cc(F)cc2F)c(-c2ccc(F)cc2Cl)cc(Br)c1=O [Compound 578]	H (H shows more than 50% of control values)	H (H shows more than 50% of control values)	L (L shows 50% or less of control values)	H (H shows more than 50% of control values)	H (H shows more than 50% of control values)
CCOc1cc(F)c(-c2c(-c3cc(F)cc(F)c3F)ccc(=O)n2CC)c(F)c1 [Compound 579]	H (H shows more than 50% of control values)	H (H shows more than 50% of control values)	H (H shows more than 50% of control values)	H (H shows more than 50% of control values)	H (H shows more than 50% of control values)
CCOc1cc(F)c(-c2c(-c3cc(F)cc(F)c3F)cc(Cl)c(=O)n2CC)c(F)c1 [Compound 580]	H (H shows more than 50% of control values)	H (H shows more than 50% of control values)	L (L shows 50% or less of control values)	H (H shows more than 50% of control values)	H (H shows more than 50% of control values)
CCN1C(=S)CCC(c2cc(OC)ccc2Cl)=C1c1c(F)cccc1F [Compound 581]	H (H shows more than 50% of control values)	H (H shows more than 50% of control values)	H (H shows more than 50% of control values)	H (H shows more than 50% of control values)	H (H shows more than 50% of control values)
